Test results from PubChem BioAssay AID686978 (National Center for Advancing Translational Sciences (NCATS), 2013).
Values joined by “and” are separate entries in the source; they are usually repeats but may differ in a detail not shown here. Identical values can stand only once. Out of some 420,000 compounds screened, about 64,000 (15%) were called active. The shares of active, inactive and inconclusive entries below differ from those in the screen. The call rests on the fitted dose curve; in most records, active means well fitted inhibition curve with a large enough effect; inconclusive means small, poorly fitted or top-dose-only effect; inactive means flat fitted curve, though single readings scatter. Potencies of inconclusive entries are doubtful fits and often do not repeat.

Assay: qHTS for Inhibitors of human tyrosyl-DNA phosphodiesterase 1 (TDP1): qHTS in cells in absence of CPT; further: nearly all actives have a fitted effect of over 55% in size
Details: DT40 Tdp1-/- hTDP1 cells, no CPT, ATP luminescence, 48 h; activity change, negative = growth inhibition: at 46.2 µM (top of the series) unless noted
Outline: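 Chicken DT40 Tdp1-/- cells complemented with human TDP1, screened without camptothecin (DMSO vehicle only), 400 cells/well. Compounds pin-transferred, cells incubated at 37 °C for at least 48 hr. Growth read as ATP-dependent luminescence (CellTiter-Glo, 30 min at RT).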
On the % scale 0 is the no-effect control and ±100 the full control effect; potency means the concentration at half of the fitted maximal effect; tags describe the fitted curve by direction and shape.

Structure (SMILES) | activity change, negative = growth inhibition | Potency
S=c1[nH]nc(-c2ccc(Cl)cc2)n1-c1ccc(Cl)cc1 | inactive: -12.3% | 
O=C(NCc1ccncc1)C(=O)NCC1OCCN1S(=O)(=O)c1ccccc1 (configuration not stated) | inactive: 1.64% | 
Cc1ccccc1CN1C(=O)c2ccccc2C1c1nnnn1-c1ccc2c(c1)OCCO2 (configuration not stated) |  | active: 4.11 µM
c1ccc(CN=C2CCCc3ccccc3N2)cc1 |  | inconclusive: 29.1 µM [inhibitor, single point]
CC1CCCN(CCCCOc2cccc(Br)c2)C1 (configuration not stated) |  | inconclusive: 25.9 µM [inhibitor, single point]
C/C(=N\Nc1ccc([N+](=O)[O-])cc1[N+](=O)[O-])c1cccnc1 | inactive: -7.28% | 
CCc1ccc(NC(=O)C(=O)NCC(c2cccnc2)N2CCN(C)CC2)cc1 (configuration not stated) |  | inconclusive: 29.1 µM [inhibitor, single point]
CNS(=O)(=O)c1cccc(C(=O)OCC(=O)c2c(N)n(C)c(=O)n(C)c2=O)c1 |  | inconclusive: 23.1 µM [inhibitor, single point]
CCOc1ccc(NC(=O)NN2C(C)CCCC2C)cc1 (configuration not stated) |  | inconclusive: 25.9 µM [inhibitor, single point]
Cc1ccc(C(C)C)c(OCCn2ccnc2C)c1 |  | active: 23.1 µM
CCOc1ccc(C(=O)Nc2ccccc2C#N)cc1[N+](=O)[O-] |  | inconclusive: 23.1 µM [inhibitor, single point]
Cc1nonc1OCC(C)(COc1nonc1C)NC(=O)c1ccccc1 | inactive: -4.69% | 
Cc1ccc(CNS(=O)(=O)c2cc3c4c(c2)C(C)C(=O)N4CCC3)cc1 (configuration not stated) | inactive: -16.1% | 
COc1cc(NC(=O)C(CC(C)C)NS(=O)(=O)c2ccc3c(c2)oc(=O)n3C)c(C(=O)O)cc1OC (configuration not stated) | inactive: -7.31% | 
Cc1ccn2c(NC(=O)c3cccs3)c(-c3ccccc3)nc2c1 |  | inconclusive: 16.4 µM [inhibitor, single point]
Cc1ccc(/C=N/Nc2nc3ccccc3[nH]2)s1 |  | inconclusive: 29.1 µM [inhibitor, single point]
O=C(N/N=C/c1cccc(F)c1)c1c(O)c2c([nH]c1=O)CCCC2 |  | inconclusive: 23.1 µM [inhibitor, single point]
O=C(NC(=S)NCc1ccncc1)c1ccccc1 | inconclusive: 3.68% [inhibitor] | 
COC(=O)c1cc2oc3ccccc3c2n1CC(=O)N1CCCc2ccccc21 |  | inconclusive: 25.9 µM [inhibitor, single point]
Cc1cc2nc(Sc3c([N+](=O)[O-])nc(C)n3Cc3ccccc3)[nH]c2cc1C |  | active: 11.6 µM
COc1ccc(C(C(=O)NC(C)(C)C)N(Cc2ccccc2)C(=O)CCC(=O)Nc2cc(C)on2)cc1 (configuration not stated) |  | inconclusive: 20.6 µM [inhibitor, single point]
CSc1ccc(CN2CCC(C)(Oc3cccc(C#N)c3)C2)cc1 (configuration not stated) |  | inconclusive: 25.9 µM [inhibitor, single point]
O=C(O)c1ccccc1-c1ccccc1C(=O)NCCc1ccccc1 | inactive: -3.96% | 
COc1ccc(C(=O)N2CCC[C@@]3(CCN(C(=O)Nc4cccc(F)c4)C3)C2)cc1 | inactive: -14.4% | 
COc1cccc(/C=N/Nc2nnc3c(n2)[nH]c2ccccc23)c1OC |  | inconclusive: 10.3 µM [inhibitor, partial curve]
CCOc1ccc(/C=N/OCC(=O)NC(c2ccccc2)c2ccccc2)cc1 |  | inconclusive: 29.1 µM [inhibitor, single point]

Structure (SMILES) | activity change, negative = growth inhibition | Potency
COc1ccc(S(=O)(=O)Nc2nnc(C)s2)cc1 | inactive: -0.0653% | 
O=C(NCC1CCCO1)c1cccc(NS(=O)(=O)c2ccc(Br)cc2)c1 (configuration not stated) |  | inconclusive: 29.1 µM [inhibitor, single point]
N#CC1=C(N)NC(SCC(=O)c2ccccc2)=C(C#N)C12CCCC2 |  | inconclusive: 29.1 µM [inhibitor, single point]
CCC(CO)Oc1cc(NCc2ccccc2O)c2ncn(C(C)C)c2c1 (configuration not stated) |  | active: 18.4 µM
Cc1ccc(-n2ccnc(NCCc3ccc(S(N)(=O)=O)cc3)c2=O)cc1C |  | inconclusive: 13 µM [inhibitor, partial curve]
CCC1CCCCN1C(=O)CSc1nc2c([nH]c3ccccc32)c(=O)n1-c1cccc(OC)c1 (configuration not stated) |  | active: 25.9 µM
Cc1cc(Cl)c(S(=O)(=O)Nc2ccc3c(c2)OCCO3)cc1OCC(=O)NC1CCCCC1 |  | inconclusive: 18.4 µM [inhibitor, single point]
Cc1cccc(C)c1NC(=O)CN(C)C(=O)c1ccccc1Cc1ccccc1 |  | inconclusive: 18.4 µM [inhibitor, partial curve]
COc1cc(C(=O)Nc2ccc(NC(=O)c3ccc(Br)cc3)cc2)cc(OC)c1OC | inactive: -3.66% | 
CCOC(=O)C1CCCN(C2CC(=O)N(c3ccc(C(C)C)cc3)C2=O)C1 (configuration not stated) | inconclusive: -34% [inhibitor] | 
COc1ccc(CNC(=O)CC[C@H]2O[C@@H](n3cc(C)c(=O)[nH]c3=O)C[C@@H]2O)cc1 | inactive: 18.7% | 
CC(=O)C1(C)C(=O)N(c2ccc(C)cc2)C(=O)N1c1ccc(C)cc1 (configuration not stated) | inactive: -13% | 
O=C(NCC(=O)N(c1cccc(F)c1)C(C(=O)NCC1CCCO1)c1ccccc1)c1ccco1 (configuration not stated) | inactive: -7.93% | 
CN(C)C(=O)c1ccc(NC(=O)c2ccccc2SCC(=O)N2CCCC2)cc1 | inactive: -2.44% | 
COCCCNC(=S)Nc1ccccc1C | inactive: 30.2% | 
Cc1cccc(N2CCN(C(=O)c3cc4c(=O)n(C)c5ccccc5c4s3)CC2)c1C |  | active: 5.8 µM
CCOCc1cnc(C)nc1NCC(=O)c1c(C)n(C)c2ccc(OC)cc12 |  | inconclusive: 29.1 µM [inhibitor, single point]
COc1ccc(NC(=O)c2ccc(-c3ccccc3C(F)(F)F)o2)cc1 |  | active: 16.4 µM
O=C(NCc1ccncc1)C12CC3CC(CC(Cl)(C3)C1)C2 | inactive: -12.8% | 
CC(C)Cc1cc(C(=O)O)n[nH]1 | inactive: -9.16% | 
O=C(NN1CCCCC1)NN1CCCCC1 | inactive: -11.9% | 
O=C(NCCN1CCC(n2c(=O)[nH]c3ccccc32)CC1)c1ccc(F)c(C(F)(F)F)c1 |  | active: 25.9 µM
CCCN(CCC)c1ccc(/C=C/c2ccnc3ccccc23)cc1 |  | active: 5.01 µM
O=C(O)c1cccc(NC(=O)c2ccccc2NC(=O)c2ccco2)c1 | inactive: 2.43% | 
COc1ccc(CNCC(O)COc2cccc3c2OC(C)(C)C3)cc1 (configuration not stated) |  | active: 8.2 µM
Cc1cc(C)nc(NCc2ccc(Cl)cc2)n1 | inactive: -18.7% | 

Structure (SMILES) | activity change, negative = growth inhibition | Potency
CCOc1ccc(S(=O)(=O)Nc2ccc(C(=O)N3CCCC3)cc2)cc1C(N)=O | inactive: -15.4% | 
O=C(NCC(c1cccs1)N1CCOCC1)c1cc2ccccc2oc1=O (configuration not stated) |  | inconclusive: 14.6 µM [inhibitor, partial curve]
COc1ccccc1-c1ccnc2[nH]n(-c3ccccc3)c(=O)c12 |  | inconclusive: 20.6 µM [inhibitor, single point]
O=C(Cc1cccs1)Nc1nnc(SCc2ccc(Br)cc2)s1 |  | inconclusive: 20.6 µM [inhibitor, single point]
Cc1ccc(-c2csc(C(O)c3ccc(F)c(F)c3)n2)cc1C (configuration not stated) |  | inconclusive: 18.4 µM [inhibitor, single point]
O=C1/C(=C\c2cccc(O)c2O)SC(=S)N1Cc1ccccc1 |  | active: 23.1 µM
Cc1ccccc1CNc1nnnn1C | inactive: 19.1% | 
O=C1C(C=Nc2ccc(F)cc2)=C(O)c2ccccc21 | inactive: -15.1% | 
CCOc1ccc(C2C(=O)N(C3CCCCCC3)CC(=O)N2CCc2ccccc2)cc1OC (configuration not stated) |  | inconclusive: 20.6 µM [inhibitor, partial curve]
COc1ccc(S(=O)(=O)N/N=c2\oc3c(OC)cccc3cc2S(=O)(=O)c2ccc(C)cc2)cc1OC | inactive: -16% | 
CCOC(=O)[C@H]1[C@H]2COc3ccc(Br)cc3[C@@H]2N2C(=O)N(c3ccc(F)cc3)C(=O)[C@@]12C |  | inconclusive: 20.6 µM [inhibitor, single point]
CCCn1c(=N)n(CC(=O)c2ccc(OCC(=O)OC)cc2)c2ccccc21 |  | inconclusive: 29.1 µM [inhibitor, single point]
CCc1ccc(NC(=O)c2noc3c2CCc2ccccc2-3)cc1 |  | inconclusive: 11.6 µM [inhibitor, partial curve]
COc1ccc(Cn2ccnc2SCC(=O)NCc2ccccc2)cc1 |  | inconclusive: 32.6 µM [inhibitor, single point]
O=C(Nc1nnc(COc2ccc(Cl)cc2)s1)c1cccs1 |  | active: 11.6 µM
Cc1cccc(Oc2ccc(Cl)cc2N)c1 |  | inconclusive: 29.1 µM [inhibitor, single point]
O=C(Nc1cccc(C(F)(F)F)c1)c1csc([C@@H]2O[C@H](CO)[C@H](O)[C@H](O)[C@H]2O)n1 | inactive: -5% | 
CCCN(C(=O)c1cccc(S(=O)(=O)N2CCN(C)CC2)c1)c1c(N)n(Cc2ccccc2)c(=O)[nH]c1=O | inactive: -23.1% | 
Cc1cccc(N2CCN(c3nc4ccccc4c(=O)n3-c3ccc(Cl)cc3)CC2)c1C |  | inconclusive: 16.4 µM [inhibitor, single point]
CCc1cccc(C)c1NC(=O)Cn1c(=O)cc(C(F)(F)F)c2c(C)nn(C)c21 |  | inconclusive: 20.6 µM [inhibitor, single point]
C=CCSC1=N/C(=C\c2ccc(C(=O)O)cc2)C(=O)S1 | inactive: -5.7% | 
COc1ccc(OC)c(S(=O)(=O)NCc2ccccn2)c1 | inactive: -2.44% | 
NS(=O)(=O)c1ccc(N/N=C2/CCCCC2C2CCCCC2)c([N+](=O)[O-])c1 (configuration not stated) |  | active: 10.3 µM
Cc1cc(N2C(=O)C(=O)/C(=C(/O)c3ccccc3)C2c2cccc(Br)c2)no1 (configuration not stated) | inactive: -12.7% | 
NCCCNCCCCNCCCN |  | inactive and inconclusive: 33.5 µM [inhibitor, single point]
